In PubChem BioAssay AID624296 (National Center for Advancing Translational Sciences (NCATS), 2012):
Values joined by “and” are separate entries in the source; they are usually repeats but may differ in a detail not shown here. Identical values can stand only once. Screen size: about 350,000 compounds; about 9,900 (2.8%) were called active. Inconclusive results, whose numbers are uncertain, are shown with a selection of clear calls. Calls follow the shape of the dose curve; as a rule, active = well fitted activation curve with a large enough effect; inconclusive = small, poorly fitted or top-dose-only effect; inactive = no such curve, though single readings can be large or run the other way. Potencies beside an inconclusive call are fits to weak or partial responses and may not hold up.

Assay: A quantitative high throughput screen for small molecules that induce DNA re-replication in MCF 10a normal breast cells. Also: nearly all actives have a fitted effect of over 50% in size. As to activity, positive = re-replication: % of control where 0% means no effect.
Conditions: MCF 10A DNA re-replication, Hoechst nuclear intensity, 48 h; activity, positive = re-replication: at 46.1 µM (top of the series)
Potency is read from the fitted curve at half-maximal effect; tags tell the direction and shape of the fitted curve.

With `COc1cc(C(=O)NCC(=O)OCCN2C(=O)c3ccccc3C2=O)cc(OC)c1OC` as the compound, how does the “activity, positive = re-replication” value read?
The value was inactive: 12.6%.

For `CCOC(=O)C1(CCOc2ccccc2)CCN(Cc2ccc(-n3cccn3)cc2)CC1`, which Potency is on record?
The Potency was inconclusive: 23.1 µM [activator, single point].

Which Potency does the source give for `Oc1ccc(-c2csc(Nc3ccccn3)n2)c(O)c1` here?
Its Potency is inconclusive: 20.6 µM [activator, partial curve, poor fit].

Which Potency does the source give for `CN(C(=O)c1cccc(NC(=O)Cc2cccc(NC(=O)C3CCN(C(=O)C4CC4)CC3)c2)c1)C1CCC1` here?
The Potency was inconclusive: 10.3 µM [activator, partial curve, poor fit].

With `COc1ccc(N2CCN(C(=O)c3cc(=O)[nH]c4ccccc34)CC2)cc1` as the compound, how does the “activity, positive = re-replication” value read?
Its value is inactive: -2.62%.

With `Cc1cccc(N2CC(C(=O)Nc3nnc(SCC(=O)NCC4CCCO4)s3)CC2=O)c1` (stereo unspecified) as the compound, how does the Potency read?
The Potency was inconclusive: 29.1 µM [activator, partial curve, poor fit].

For `O=C(CN1CCOCC1)Nc1nc(-c2ccc3c(c2)CCN3S(=O)(=O)c2ccccc2)cs1`, which Potency is on record?
Its Potency is inconclusive: 18.4 µM [activator, single point].

Which “activity, positive = re-replication” value does the source give for `CC[C@]12c3[nH]c4cc(-c5ccco5)ccc4c3CCN1C(=O)[C@@H](CC(=O)NCc1ccco1)C[C@@H]2C(=O)N1CCN(C(=O)c2ccco2)CC1` here?
Its value is inactive: 20.5%.

Which “activity, positive = re-replication” value does the source give for `O=C(c1cc(COc2ccc(F)cc2Cl)on1)N1CCN(C2CCCC2)CC1` here?
Its value is inactive: 3.39%.

With `NC(CSC(c1ccccc1)(c1ccccc1)c1ccccc1)C(=O)O` (stereo unspecified) as the compound, how does the Potency read?
The Potency was active: 6.51 µM.

With `Cc1c(C(=O)NCCSCc2ccccc2Cl)cccc1[N+](=O)[O-]` as the compound, how does the Potency read?
Its Potency is inconclusive: 14.6 µM [activator, partial curve].

Which Potency does the source give for `Nc1ccc2c(C(F)(F)F)cc(=O)oc2c1` here?
The Potency was inconclusive: 25.9 µM [activator, single point].

Which Potency does the source give for `O=C(Nc1nc2ccc(F)cc2s1)c1ccccn1` here?
Its Potency is active: 18.4 µM.

With `COc1ccc(/C=C/C(=O)Nc2ccccc2F)cc1S(=O)(=O)N1CCOCC1` as the compound, how does the Potency read?
Its Potency is inconclusive: 29.1 µM [activator, partial curve, poor fit].

For `CNC(=S)N=Nc1c(O)[nH]c2ccc(C(C)C)cc12`, which “activity, positive = re-replication” value is on record?
The value was inactive: 2.77%.

With `Fc1ccc(CNn2cnnc2SCc2ccc(F)cc2)cc1` as the compound, how does the “activity, positive = re-replication” value read?
The value was inactive: 5.01%.

With `CNC(=O)/C(=C/c1ccc2c(c1)OCO2)NC(=O)c1ccc(Br)cc1` as the compound, how does the Potency read?
Its Potency is inconclusive: 29.1 µM [activator, single point].

With `Cc1cc(N/N=C/c2ccccc2Br)nc2ccccc12` as the compound, how does the Potency read?
Its Potency is inconclusive: 20.6 µM [activator, single point].

Which Potency does the source give for `Cc1nc([N+](=O)[O-])c(Br)n1Cc1ccccc1` here?
The Potency was inconclusive: 23.1 µM [activator, single point].

Which Potency does the source give for `CCN1C(=O)/C(=C/N2CC(C)CC(C)C2)SC1=S` (stereo unspecified) here?
Its Potency is inconclusive: 20.6 µM [activator, partial curve, poor fit].

Which Potency does the source give for `Cc1cc(C(=O)CCl)c(C)n1-c1c(C)n(C)n(-c2ccccc2)c1=O` here?
The Potency was active: 5.17 µM.

Which “activity, positive = re-replication” value does the source give for `O=C(N1CCN(c2cccc(Cl)c2)CC1)C1(c2cccs2)CCOCC1` here?
The value was inactive: 8.2%.

For `O=C(N/N=C/c1ccc2c(c1)OCO2)c1cccnc1`, which “activity, positive = re-replication” value is on record?
The value was inactive: -6.38%.

Which Potency does the source give for `CC1Cc2ccccc2N1C(=S)Nc1cccc(S(=O)(=O)N(C)C)c1` (stereo unspecified) here?
The Potency was inconclusive: 23.1 µM [activator, single point].

For `CC(NS(=O)(=O)c1ccccc1Cl)C1CC2CCC1C2` (stereo unspecified), which “activity, positive = re-replication” value is on record?
The value was inactive: 4.25%.

With `Cn1nnc(NC(=S)NC(=O)c2cccc3ccccc23)n1` as the compound, how does the “activity, positive = re-replication” value read?
The value was inactive: -11.5%.

With `O=C(NC1CC1)c1nc(Cn2ccc([N+](=O)[O-])n2)no1` as the compound, how does the Potency read?
The Potency was inconclusive: 29.1 µM [activator, single point].

With `CCCN(CCC)C(=O)CC(c1ccccc1)c1cc(C)ccc1O` (stereo unspecified) as the compound, how does the Potency read?
The Potency was inconclusive: 23.1 µM [activator, single point].

With `CCN1CCSc2ccc(C(=O)NCc3cccc(Br)c3)cc21` as the compound, how does the Potency read?
Its Potency is inconclusive: 1.46 µM [activator, partial curve, poor fit].

With `Cc1ccccc1N1CC(O)(c2cccs2)[N+]2=C1CCCC2` (stereo unspecified) as the compound, how does the Potency read?
The Potency was inconclusive: 29.1 µM [activator, single point].

Which Potency does the source give for `CC(=O)Nc1ccc(N=Cc2c(O)c(C(=O)Nc3ccccc3)cc3ccccc23)cc1` here?
Its Potency is active: 3.66 µM.

Which Potency does the source give for `O=S(=O)(C=C(c1ccccc1)c1ccccc1)c1ccccc1` here?
Its Potency is inconclusive: 23.1 µM [activator, single point].

For `CC(C)C(Cl)=NOC(=O)Nc1ccc(S(N)(=O)=O)cc1`, which Potency is on record?
The Potency was active: 2.91 µM.

For `Cc1ccc(CONC(=O)c2ccc(OC(F)F)cc2)cc1`, which “activity, positive = re-replication” value is on record?
The value was inactive: -0.97%.

With `O=C1CC(N(O)C2CC(=O)N(Cc3ccccc3)C2=O)C(=O)N1Cc1ccccc1` (stereo unspecified) as the compound, how does the Potency read?
The Potency was inconclusive: 20.6 µM [activator, single point].

With `COc1ccc(-n2nc(C(=O)NCC(=O)N3CC(C)CC(C)C3)c3ccccc3c2=O)cc1` (stereo unspecified) as the compound, how does the “activity, positive = re-replication” value read?
The value was inactive: 23.9%.

For `CCC(C)(C)n1nnnc1C(c1ccc(C)cc1)N1CCN(C(=O)c2ccco2)CC1` (stereo unspecified), which Potency is on record?
Its Potency is inconclusive: 2.51 µM [activator, full curve, poor fit].

With `CC(C)C1Cc2c(sc3[nH]c(=S)n(Cc4ccccc4)c(=O)c23)CO1` (stereo unspecified) as the compound, how does the Potency read?
Its Potency is inconclusive: 14.1 µM [activator, partial curve, poor fit].

With `O=c1c2ccccc2nc(-c2ccccc2)n1O` as the compound, how does the Potency read?
The Potency was inconclusive: 29.1 µM [activator, single point].

With `CC(C)(C)NC(=O)NC(=O)CSc1ccc(S(=O)(=O)N2CCOCC2)cn1` as the compound, how does the “activity, positive = re-replication” value read?
The value was inactive: 3.51%.

With `CS(=O)(=O)c1ccc(Cl)c(NC(=O)CN2CCN(S(=O)(=O)/C=C/c3ccccc3)CC2)c1` as the compound, how does the “activity, positive = re-replication” value read?
Its value is inactive: -9.55%.

Which “activity, positive = re-replication” value does the source give for `CN(C)c1ccc(/C=C2\N=C(c3ccc(Cl)c([N+](=O)[O-])c3)NC2=O)cc1` here?
The value was inactive: -2.57%.

For `COc1ccc(NC(=O)c2nn(C)cc2[N+](=O)[O-])cc1`, which Potency is on record?
Its Potency is inconclusive: 29.1 µM [activator, single point].

For `Cc1ccc(OCCC(=O)OCC(=O)NCCc2ccccc2)cc1`, which Potency is on record?
The Potency was inconclusive: 16.4 µM [activator, single point].

With `C/C(CC(=O)NC12CC3CC(CC(C3)C1)C2)=N\NC(=O)c1cnccn1` as the compound, how does the “activity, positive = re-replication” value read?
Its value is inactive: -0.445%.

For `O=C(Nc1cc(=O)[nH]c(=O)[nH]1)c1cccc(C(F)(F)F)c1`, which “activity, positive = re-replication” value is on record?
Its value is inactive: -2.33%.

For `COc1ccccc1NC(=O)Nc1nc(CC(=O)Nc2ccc(F)c(F)c2)cs1`, which Potency is on record?
The Potency was inconclusive: 32.6 µM [activator, partial curve, poor fit].

For `Cc1nc2sccn2c(=O)c1S(=O)(=O)N1CCN(c2cccc(C(F)(F)F)c2)CC1`, which “activity, positive = re-replication” value is on record?
The value was inactive: 16.1%.

For `COc1ccc(/C=C2\SC(=S)N(NS(=O)(=O)c3ccccc3)C2=O)c(OC)c1`, which “activity, positive = re-replication” value is on record?
The value was inactive: 6.45%.

With `COc1ccc(-c2c3c(nc4sc(C(=O)Nc5ccccc5)c(N)c24)CCC3)cc1` as the compound, how does the Potency read?
Its Potency is inconclusive: 6.51 µM [activator, single point].

With `CCOC(=O)N1CCC(NC(=O)c2cc3c(-c4ccccc4F)nn(C)c3s2)CC1` as the compound, how does the Potency read?
The Potency was inconclusive: 16.4 µM [activator, partial curve, poor fit].

With `Cc1cc2[nH]c(=O)cc(-c3ccccc3)n2n1` as the compound, how does the “activity, positive = re-replication” value read?
The value was inactive: 9.82%.

With `C=CCn1c(CSCc2ccc(C)cc2)nnc1SCC(=O)NCc1ccccc1` as the compound, how does the Potency read?
Its Potency is inconclusive: 29.1 µM [activator, single point].

For `O=C(c1cccc(C(F)(F)F)c1)C1CCCN(C(=O)CCc2cnccn2)C1` (stereo unspecified), which “activity, positive = re-replication” value is on record?
Its value is inactive: 4.65%.

Which “activity, positive = re-replication” value does the source give for `CC1CC(C)CN(C(=O)Cn2c(-c3nonc3N)nc3ccccc32)C1` (stereo unspecified) here?
Its value is inactive: -1.2%.

For `C[C@@H](CN1C2=NC[C@H](Cc3ccc(O)cc3)N2C[C@H]1Cc1ccc(O)cc1)NC(=O)CCC1CCCCC1`, which “activity, positive = re-replication” value is on record?
Its value is inactive: -19.2%.

For `CN(C)CCC(c1ccc(Cl)cc1)c1ccccn1` (stereo unspecified), which Potency is on record?
Its Potency is “inactive and inconclusive: 4.6 nM [activator, full curve, poor fit]”.

For `Cc1cc(N2CCN(c3cccc(C)c3C)CC2)nc(-c2ccccc2)n1`, which Potency is on record?
The Potency was inconclusive: 9.2 µM [activator, partial curve, poor fit].

Which Potency does the source give for `CCN(CC)CCNC(=O)c1[nH]c2ccc(OCc3ccccc3)cc2c1C` here?
The Potency was inconclusive: 5.8 µM [activator, full curve, poor fit].

With `CCc1nnc(NC(=O)CCC(=O)NCc2ccc(C)cc2)s1` as the compound, how does the “activity, positive = re-replication” value read?
Its value is inactive: 2.62%.

For `Cc1ccc(-c2csc3ncnc(Sc4nnc(CN5CCCCCC5=O)o4)c23)cc1`, which Potency is on record?
The Potency was active: 14.6 µM.

Which Potency does the source give for `O=C(/C=C/NNC(=O)c1ccc(Br)cc1)c1ccccc1` here?
The Potency was inconclusive: 23.1 µM [activator, single point].

With `CCOC(=O)c1c(-c2ccccc2)csc1NC(=O)CSc1nc(N)cc(N)n1` as the compound, how does the Potency read?
Its Potency is inconclusive: 3.26 µM [activator, full curve].

With `CCc1cccc(NC(=O)Nc2ccc3c(c2)OCO3)c1` as the compound, how does the Potency read?
Its Potency is inconclusive: 20.6 µM [activator, partial curve, poor fit].

With `CC(C)(C)NC(=O)CCCSc1nc2ccccc2s1` as the compound, how does the Potency read?
The Potency was inconclusive: 32.6 µM [activator, partial curve, poor fit].

With `CSc1nc(N2CCOCC2)nc2ccc(C)cc12` as the compound, how does the Potency read?
The Potency was active: 20.6 µM.

Which “activity, positive = re-replication” value does the source give for `O=C(NCC1CCCO1)C(c1ccncc1)N(Cc1ccc(F)cc1)C(=O)CN1C(=O)c2ccccc2S1(=O)=O` (stereo unspecified) here?
Its value is inactive: -8.25%.

For `CCn1ncc(/C=N/NC(=O)c2ccc3c(c2)OCO3)c1C`, which Potency is on record?
The Potency was inconclusive: 29.1 µM [activator, single point].

For `OCCN1CCN(c2ncnc3scc(-c4ccc(F)cc4)c23)CC1`, which “activity, positive = re-replication” value is on record?
Its value is inactive: 15.9%.

With `CCO[C@H]1OC(C(=O)N2CCN(Cc3ccc4c(c3)OCO4)CC2)=C[C@@H](c2ccc(C(F)(F)F)cc2)[C@@H]1CCCO` as the compound, how does the Potency read?
Its Potency is inconclusive: 0.82 µM [activator, full curve, poor fit].

For `COc1ccc(OC)c(CNC(=O)CCC(=O)N2Cc3cccc(OC)c3Oc3ncccc32)c1`, which “activity, positive = re-replication” value is on record?
Its value is inactive: 2.22%.
